{"source": "PubChem BioAssay AID504466", "about": "(National Center for Advancing Translational Sciences (NCATS), 2011)", "note": "The campaign covered roughly 330,000 compounds. About 4,200 (1.3%) were called active. The inconclusive results got no clear call from the source; some entries with a clear call stand among them for comparison. The call rests on the fitted dose curve; in most records, active means well fitted activation curve with a large enough effect; inconclusive means small, poorly fitted or top-dose-only effect; inactive means no such curve, though single readings can be large or run the other way. Potencies beside an inconclusive call are fits to weak or partial responses and may not hold up. Potency means the concentration at half of the fitted maximal effect; tags describe the fitted curve by direction and shape."}
{"assay": "qHTS screen for small molecules that induce genotoxicity in human embryonic kidney (HEK293T) cells expressing luciferase-tagged ELG1; further: nearly all actives have a fitted effect of over 60% in size; on activity change, positive = activation: % of control where 0% means no effect", "conditions": "HEK293T ELG1-luciferase reporter, luminescence, 16 h; series mostly up to 46 µM; activity change, positive = activation: at the top concentration", "summary_of_the_method": "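HEK293T cells expressing luciferase-tagged ELG1 were treated with compound or DMSO for 16 hr at 37°C. Luciferase activity was then read after 30 min with ONE-Glo at room temperature; rising signal flags genetic stress.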"}
{"smiles": "O=C(Nc1ccc(Br)cc1)c1ccc(N2C(=O)C3CCCCC3C2=O)cc1", "note": "(centres undefined)", "activity change, positive = activation": "inactive: 1.44%"}
{"smiles": "CCCCNc1ccc(C(=O)OCCOCCOCCOCCOCCOCCOCCOCCOCCOC)cc1", "Potency": "inconclusive: 16.4 µM [activator, partial curve, poor fit]"}
{"smiles": "Cc1cc(C)nc(Oc2ccc(Br)cc2Br)n1", "Potency": "inconclusive: 16.4 µM [activator, partial curve, poor fit]"}
{"smiles": "CC(O)CN=c1cc(-c2ccccc2)oc2ccc(Cl)cc12", "note": "(centres undefined)", "Potency": "inconclusive: 23.1 µM [activator, partial curve, poor fit]"}
{"smiles": "COc1cccc(NC(=O)CNS(=O)(=O)c2ccc(Cl)cc2)c1", "activity change, positive = activation": "inactive: 0.454%"}
{"smiles": "O=C(Cc1ccc(F)cc1)N/N=C/c1ccc2c(c1)OCO2", "Potency": "inconclusive: 20.6 µM [activator, single point]"}
{"smiles": "Cc1ccnc(Sc2ccc([N+](=O)[O-])cc2[N+](=O)[O-])n1", "Potency": "inconclusive: 29.1 µM [activator, partial curve, poor fit]"}
{"smiles": "COc1ccc(Nc2nc(N)nc(CSC(=S)N3CCOCC3)n2)cc1", "Potency": "inconclusive: 18.3 µM [activator, partial curve]"}
{"smiles": "CSc1nc2ccc(NC(=O)c3ccc(F)c(F)c3)cc2s1", "Potency": "inconclusive: 7.3 µM [activator, partial curve, poor fit]"}
{"smiles": "O=C(NCCCCO)c1ccc2c3c(cccc13)CC2", "activity change, positive = activation": "inactive: 7.38%"}
{"smiles": "CC[n+]1ccc(/C=C2\\Sc3ccccc3N2CCCS(=O)(=O)[O-])c2ccccc21", "activity change, positive = activation": "inactive: 0.712%"}
{"smiles": "O=C(CCSCc1ccccc1F)N1CCN(c2ccccn2)CC1", "Potency": "active: 18.4 µM"}
{"smiles": "O=C(CSc1ccc(-c2ccccc2)nn1)Nc1ccc2c(c1)OCCO2", "Potency": "inconclusive: 14.6 µM [activator, partial curve, poor fit]"}
{"smiles": "Cc1occc1C(=O)NCCCc1ccccc1", "Potency": "inconclusive: 12.6 µM [activator, single point]"}
{"smiles": "COc1cc(NC(C)=O)c2ncccc2c1[N+](=O)[O-]", "activity change, positive = activation": "inactive: -2.27%"}
{"smiles": "O=C(CSCc1c(F)cccc1F)Nc1ccccc1", "Potency": "inconclusive: 18.3 µM [activator, partial curve]"}
{"smiles": "O=c1ccccn1CCOc1ccccc1Cl", "Potency": "inconclusive: 14.6 µM [activator, partial curve, poor fit]"}
{"smiles": "CC(Sc1nnc(C(F)(F)F)n1C)C(=O)NC(N)=O", "note": "(centres undefined)", "activity change, positive = activation": "inactive: 1.71%"}
{"smiles": "O=C(Nc1ncc([N+](=O)[O-])s1)c1ccco1", "Potency": "active: 2.59 µM"}
{"smiles": "Cn1c(=NC(=O)CN2C(=O)C3CC=CCC3C2=O)sc2ccccc21", "note": "(centres undefined)", "Potency": "inconclusive: 25.9 µM [activator, partial curve, poor fit]"}
{"smiles": "Nc1nc(-c2ccc(Cl)cc2)nc(-c2ccc(Cl)cc2)n1", "Potency": "inconclusive: 23.1 µM [activator, partial curve, poor fit]"}
{"smiles": "COc1cc2c(cc1OC)/C(=C/C(=O)c1ccccc1)NCC2", "activity change, positive = activation": "inactive: 11.9%"}
{"smiles": "S=C(NCc1ccccc1)NNc1ccccc1", "activity change, positive = activation": "inactive: -3.84%"}
{"smiles": "O=C(CSc1nnnn1-c1ccccc1)c1ccco1", "Potency": "inconclusive: 23.1 µM [activator, partial curve, poor fit]"}
{"smiles": "CCc1nc2ccccc2[nH]1", "activity change, positive = activation": "inactive: 0.33%"}
{"smiles": "O=C(COC(=O)c1ccc(Cl)s1)c1cc2ccccc2o1", "activity change, positive = activation": "inactive: 1.66%"}
{"smiles": "Clc1cccc(-c2cc3nc4c(c(NCc5ccco5)n3n2)CCCC4)c1", "activity change, positive = activation": "inactive: 15.9%"}
{"smiles": "S=c1nc[nH]c2c1ncn2C1CCCC1", "activity change, positive = activation": "inactive: -0.428%"}
{"smiles": "CCc1ccc(OCC(=O)NNC(=S)NC(=O)C2CC2)c(Br)c1", "Potency": "inconclusive: 29.1 µM [activator, partial curve, poor fit]"}
{"smiles": "Cc1cc(C(=O)COC(=O)CCc2nc3ccccc3c(=O)[nH]2)c(C)n1CC1CCCO1", "note": "(centres undefined)", "activity change, positive = activation": "inactive: 7.85%"}
{"smiles": "CCCc1[nH]n(-c2nc3ccccc3s2)c(=O)c1C=NCCN1CCOCC1", "Potency": "inconclusive: 14.6 µM [activator, partial curve]"}
{"smiles": "Cc1nc2sc(-c3ccccc3)cc2c(=O)n1N", "Potency": "inconclusive: 0.411 µM [activator, full curve]"}
{"smiles": "CC(C)c1ccc(/C=N/NC(=O)c2c(Cl)cnn2C)cc1", "Potency": "active: 18.4 µM"}
{"smiles": "Cc1nc(C#N)c(N/N=C/c2cccc(Cl)c2)o1", "Potency": "inconclusive: 13 µM [activator, partial curve, poor fit]"}
{"smiles": "O=C(Cn1cnc2c(nnn2Cc2ccc(F)cc2)c1=O)NCc1ccc(F)cc1", "activity change, positive = activation": "inactive: -2.73%"}
{"smiles": "CN1CCc2c(sc(/N=C/c3c[nH]c4ccccc34)c2C#N)C1", "Potency": "inconclusive: 32.6 µM [activator, partial curve, poor fit]"}
{"smiles": "Cc1ccc(C2=N/C(=C\\N(C)C)C(=O)O2)cc1", "Potency": "active: 14.6 µM"}
{"smiles": "N#C/C(=C/c1ccc(N2CCCCC2)cc1)c1cccc(F)c1", "Potency": "active: 18.4 µM"}
{"smiles": "CC(C)(CC(=O)O)CC(=O)N1CCCN(c2nccc(C(F)(F)F)n2)CC1", "activity change, positive = activation": "inactive: 5.9%"}
